Displacement data for 110 compounds are collected here from PubChem BioAssay AID1240 (Sanford-Burnham Center for Chemical Genomics, 2008).

The structures appear in SMILES notation. Out of some 50,000 compounds screened, about 800 (1.6%) showed an effect of 50% or more. This is one part of the list.

The experiment concerns the target Bcl-2-like protein 10 (Homo sapiens) (UniProt Q9HD36). Kind of experiment: TR3 peptide-Bcl-B binding displacers, biochemical primary FP assay, phenotype converters (AID 1240).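 Note: 0% = Bcl-B with tracer peptide and DMSO and 100% = tracer peptide lacking Bcl-B.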 The settings on record: GST-Bcl-B / FITC-TR3 peptide fluorescence polarization; stronger effect = higher value; compound at 3.75 mg/L.
Sequence of UniProt Q9HD36 (Q9HD36 whole entry, looked up): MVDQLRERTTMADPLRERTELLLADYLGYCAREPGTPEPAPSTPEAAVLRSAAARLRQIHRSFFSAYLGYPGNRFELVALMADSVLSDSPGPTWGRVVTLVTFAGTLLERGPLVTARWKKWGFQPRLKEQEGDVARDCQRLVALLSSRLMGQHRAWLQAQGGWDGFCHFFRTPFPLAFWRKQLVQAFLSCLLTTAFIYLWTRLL
Take `CCOC(=O)c1c(NC(=O)CSc2ncnc3sc4c(c23)CCCC4)sc2c1CCCC2`: the displacement came to 4.1%.
Under `O=C(/C=C/c1ccc(Br)cc1)N1CCN(c2ccc([N+](=O)[O-])cc2)CC1` stands -0.9%.
As to `COc1ccc(Cl)cc1C(=O)Nc1ccc(F)cc1`, the displacement is 1.7%.
Under `COc1ccc(C(=O)Nc2ccc(I)cc2Cl)cc1OC` stands -9.7%; under `CCCOC(=O)c1ccc(NC(=S)Nc2ccccc2)cc1`, -10.1%.
Under `CCOc1ccc(OC)cc1/C=N/NC(=O)c1ccc(C)cc1` stands 8.9%; under `CC1S/C(=N/N=C/c2ccccc2)NC1=O` (stereo not given), 0.3%; under `CC(C)(O)C#Cc1ccc(C(=O)NC(c2ccccc2)c2ccccc2)cc1`, -1.7%.
Regarding `CCOc1cccc(-c2cc(C(=O)Nc3cc(C)ccn3)c3ccccc3n2)c1`, the displacement stood at 2%.
As for `O=C(O)CCCCCN1C(=O)/C(=C2/C(=O)N(CC(=O)O)c3ccccc32)SC1=S`, the figure is -4.5%; as for `N#C/C(=C\c1ccccc1)C(=O)Nc1sc2c(c1C(N)=O)CCCC2`, -7.2%; as for `O=C1Nc2ccccc2/C1=C\c1c(Cl)cccc1Cl`, -18%.
For `CC(NC(=O)CSc1nc2ccc([N+](=O)[O-])cc2s1)c1ccccc1` (stereo not given), the displacement came out at 11.4%.
For the compound `O=C(Nc1ccc2nn(-c3ccc(F)cc3)nc2c1)c1ccccc1[N+](=O)[O-]`, the displacement amounted to 1.6%.
Under `Cc1ccc(NCCC(=O)c2cccc([N+](=O)[O-])c2)cc1` stands 14.9%.
As for `O=C(c1cccs1)N1CCN(Cc2ccccc2)CC1`, the figure is -5.3%; as for `Cc1oc2ccc(OCC(=O)c3ccccc3)cc2c1C(=O)OC(C)C`, 8.1%.
For `C=CCNC(=S)NC12CC3CC(CC(C3)C1)C2`, the displacement came to 18.4%.
`Cc1ccc(C(C)NC(=O)c2ccccc2)c(C)c1` (stereo not given): the displacement worked out at 3%.
With `C=CCc1cc(/C=C2\C(=O)NC(=O)N(c3ccc(C)cc3)C2=O)cc(OC)c1OCC(=O)O`, the displacement was -6.6%.
Regarding `O=C(Nc1ccc(Nc2ccccc2)cc1)c1cccc(Br)c1`, the displacement is -0.1%.
In the case of `C=CCN1C(=O)/C(=C\c2cccc(OCc3ccccc3)c2)SC1=S`, the displacement was 4.2%.
As to `Cc1cc(Br)ccc1N1C(=O)/C(=C/c2ccc(N(C)C)cc2)C(=O)NC1=S`, the displacement was -12.8%.
Under `COC(=O)c1cc(NC(=O)COc2ccccc2[N+](=O)[O-])cc(C(=O)OC)c1` stands 13%; under `Cc1cc(NC(=O)CCCC(=O)O)no1`, -12.3%; under `COc1ccc(N=c2ssc3c2-c2cc(C)c(C)cc2NC3(C)C)cc1`, -2%.
As for `Cc1ccc(S(=O)(=O)NCCSCc2ccc(Br)cc2)cc1`, the figure is -4.2%; as for `Cc1ccc(OCC(=O)N/N=C\c2ccc(C)cc2O)cc1`, 4.5%; as for `CC(=NCC(C)C)c1c(C)[nH]n(-c2ccc([N+](=O)[O-])cc2)c1=O`, -8.9%.
As for `Cc1ccccc1C(=O)Nc1ccc(-c2ccccc2)cc1`, the figure is 7.3%; as for `CCOC(=O)c1c(C)oc2cc(Br)c(OC(C)=O)c(OC(C)=O)c12`, -7.7%; as for `CCSc1nnc(NC(=O)C(CC)CC)s1`, -1.6%.
Turning to `COc1cc(NC(=O)c2cccnc2)c(OC)cc1NC(C)=O`, the displacement came to 2.8%.
As for `COc1ccc(OC)c(-n2c(O)c(C=Nc3ccc4c(c3)OCO4)c(=O)[nH]c2=O)c1`, the figure is 7.9%.
Under `CCOC(=O)C1=C(O)/C(=C/c2ccc(C(C)(C)C)cc2)N=C1C` stands -15.1%; under `CC(=O)C1=C(O)C(=O)N(CCN(C)C)C1c1ccc2c(c1)OCO2` (stereo not given), -0.1%.
In the case of `Cc1ccc(C(=O)/C=C/c2ccc([N+](=O)[O-])cc2)s1`, the displacement is -2.1%.
With `COc1cc2c(cc1NCc1ccncc1)oc1ccccc12`, the displacement was -12.3%.
Turning to `COC(=O)C1=C(O)/C(=C/c2cccc(OC)c2O)N=C1C`, the displacement was 13.6%.
Under `C/C(=N/NC(=O)c1cccc(O)c1)C1CC1` stands 7.9%; under `C(=N\N=C1c2ccccc2-c2ccccc21)/c1ccc2c(c1)OCO2`, -18.2%.
For the compound `O=C(O)c1ccccc1Sc1ccccc1C(=O)O`, the displacement was -5.4%.
As for `S=C(SC1OCCOC1SC(=S)N1CCOCC1)N1CCOCC1` (stereo not given), the figure is 6.3%; as for `COc1ccc(/C=N/NC(=O)CCc2c(C)n[nH]c2C)cc1O`, -9.5%.
Take `O=C1NC(=O)N(c2ccccc2)C(=O)/C1=C\c1ccc(-c2ccccc2Cl)o1`: the displacement is 42.6%.
Under `O=C(NCc1ccncc1)C(O)(c1ccccc1)c1ccccc1` stands -4.7%.
Under `Cc1c(-c2cccs2)nc2ccccc2c1C(=O)O` stands 6.1%; under `COc1ccccc1C(O)(C(=O)Nc1ccccn1)c1ccccc1OC`, -26.2%.
As for `CCOc1ccc(/C=C/C(=O)c2ccc(C)cc2)cc1`, the figure is 0.3%.
`O=C1CC(c2ccccc2)CC(O)=C1C=NC1CCCCC1` (stereo not given): the displacement was -10.4%.
Under `O=C(NCc1ccccc1)c1ccc(Cl)c(S(=O)(=O)N2CCCCC2)c1` stands -9.3%; under `O=C(NCC1(c2ccccc2)CCOCC1)c1ccc(Br)o1`, -0.9%; under `CCOc1cc(C=O)ccc1OCc1ccc(Cl)cc1`, -2.9%.
As for `O=C(CCc1ccccc1)Nc1sc2c(c1C(=O)O)CCCC2`, the figure is -1.2%; as for `O=C(Nc1ccc(Cl)cc1)OCCOc1ccc(Br)cc1Br`, 6.9%; as for `O=c1oc(-c2cccc(F)c2)nc2ccc(Cc3ccc4nc(-c5cccc(F)c5)oc(=O)c4c3)cc12`, 13.2%.
Under `COc1ccc(NC2(c3ccc(Cl)cc3)C(=O)c3ccccc3C2=O)cc1` stands -8.7%; under `CN(Cn1nc(-c2ccccc2)oc1=S)c1ccccc1`, -0.9%; under `Oc1ccc(C=Nc2ccc(O)cc2)cc1`, -14.8%.
Turning to `CN(C(=O)NS(=O)(=O)c1ccccc1Cl)c1nc(OCC(F)(F)F)nc(OCC(F)(F)F)n1`, the displacement was -0.6%.
Regarding `CCOC(=O)c1c(NC(=O)CN2C(=O)S/C(=C\c3ccccc3)C2=O)sc2c1CCCC2`, the displacement is -3.3%.
Under `CCCCOC(=O)c1ccc(NC(=O)c2cccc(OC)c2)cc1` stands 12.6%; under `O=C(CC1(O)C(=O)N(Cc2ccccc2)c2ccccc21)c1cccs1` (stereo not given), -6.1%; under `Cc1ccc(-c2nc3s/c(=C\c4cn(-c5ccccc5)nc4-c4ccccc4)c(=O)n3n2)cc1`, 8.5%.
In the case of `COCCOC(=O)C1=C(C)NC(=S)NC1c1ccc(OC)c(OC)c1` (stereo not given), the displacement was -14.3%.
As for `COc1cc(NC(=O)C2CCCCC2)c2ncccc2c1`, the figure is 7.1%; as for `CCSc1nnc(NC(=O)C2CC3CCC2C3)s1` (stereo not given), 2.7%; as for `CCOc1cc(C(=S)N2CCOCC2)cc(Br)c1OC(=O)c1ccc(Cl)cc1Cl`, 14.1%.
Regarding `COC(=O)c1ccc(C(=O)OC)c(NC(=O)COc2ccc(C)cc2C)c1`, the displacement was -1.3%.
As for `O=C(O)c1ccc(NC(=O)c2ccccc2NC(=O)c2cccs2)cc1`, the figure is 9.6%; as for `Cn1c(=O)c2c(nc(C(N)=O)n2C)n(C)c1=O`, 10.5%.
Turning to `COc1ccc(C2CC(=O)C3=C(C2)Nc2ccccc2NC3c2ccccc2[N+](=O)[O-])cc1OC` (stereo not given), the displacement was -1.6%.
In the case of `O=C(Nc1ccc(Cl)cn1)c1ccc2c(c1)OCCO2`, the displacement worked out at 8.3%.
For the compound `Cn1c(=O)n(C)c2cc(/C=C(\C#N)c3nn(-c4ccccc4)c(N)c3C#N)ccc21`, the displacement was 92.9%.
As for `O=C(/C=C/c1ccco1)Nc1nc2ccc(Br)cc2s1`, the figure is 59.2%; as for `O=C(COc1ccc(Cl)cc1)Nc1ccc(OC(F)(F)F)cc1`, 9.1%; as for `COC(=O)c1cc(C(=O)N2CCN(C)CC2)cc([N+](=O)[O-])c1`, 12.3%.
As for `COc1cc(/C(C)=N/N2CCN(Cc3ccc(C)cc3)CC2)ccc1O`, the figure is 13.1%; as for `COc1ccc(N(CC(=O)Nc2ccc(Cl)cc2)S(C)(=O)=O)cc1`, 11.3%.
For the compound `CCOc1cc(/C=N/n2cnnc2)cc(I)c1O`, the displacement amounted to 3.8%.
As to `Cc1ccccc1OCC(=O)Nc1ccc(OC(F)(F)F)cc1`, the displacement was 10.7%.
Turning to `CC(C)(C)c1ccc(OCC(=O)Nc2sc3c(c2C(N)=O)CCCC3)cc1`, the displacement was found to be 4%.
Take `Cc1ccc2nc(Nc3nc(O)c(Cc4ccccc4)c(=O)[nH]3)nc(C)c2c1`: the displacement is -4.2%.
With `Cc1ccc(/C=C2\SC(=S)N(c3c(C)n(C)n(-c4ccccc4)c3=O)C2=O)cc1`, the displacement came out at 10.9%.
As for `CCOC(=O)c1c(NC(=O)c2ccccc2OC)sc(C(=O)Nc2ccc(C)cc2C)c1C`, the figure is 2.6%.
On to `N#C/C(=C\c1ccccc1[N+](=O)[O-])C(N)=O`, for which the displacement was -2.8%.
On to `Cc1cccc(NCc2ccc3c(c2)OCO3)c1`, for which the displacement worked out at 3.2%.
On to `CCOC(=O)c1oc2cccc(O)c2c1CNCc1ccccc1`, for which the displacement came to 14.1%.
Under `O=C(/C=C/c1cccc([N+](=O)[O-])c1)Nc1cccnc1` stands 4.2%.
As for `Cc1ccc(OCC(=O)Nc2nc(-c3ccccc3)cs2)c(C)c1`, the figure is 7.1%; as for `O=C(NC(=S)Nc1ccc2oc3ccccc3c2c1)c1ccccc1`, 91.8%; as for `O=C(Nc1ccccc1Cl)N1CCN(Cc2ccc3c(c2)OCO3)CC1`, -3%.
In the case of `CCOC(=O)C1=C(O)/C(=C/c2ccc(O)cc2)SC1=Nc1ccc(Cl)cc1`, the displacement was found to be 104%.
As for `COc1ccc(-c2cc(-c3ccccc3)nc(N/N=C/c3ccc(O)c(C)c3O)n2)cc1`, the figure is 5%.
On to `COc1ccc(-c2nnc(SCC(=O)NC3CCCC3)n2-c2ccccc2)cc1`, for which the displacement is -15.1%.
As for `Cc1ncc(C[n+]2csc(CCOC(=O)C3C4CC5CC(C4)CC3C5)c2C)c(N)n1` (stereo not given), the figure is 8%.
`CCC1=NN2C(=N)/C(=C/c3ccc(OCc4ccccc4F)c(OC)c3)C(=O)N=C2S1`: the displacement amounted to 16.2%.
As to `CCOC(=O)c1ccc(-c2ccc(C(=O)Nc3ccc(-c4nc5ccccc5o4)c(O)c3)o2)cc1`, the displacement amounted to 8.7%.
For `O=C1/C(=C\c2cc([N+](=O)[O-])ccc2Cl)SC(=S)N1Cc1ccccc1`, the displacement is -6.3%.
As for `O=C(CSc1nc2ccc(NC(=O)c3ccc(Cl)cc3Cl)cc2s1)NC1CCCCC1`, the displacement was determined as 15.4%.
Under `C=CCN(CC=C)C(=O)c1ccccc1` stands 6.2%.
For `Cc1ccnc(NC(=S)NC(=O)/C=C/c2ccccc2)c1`, the displacement was -1.3%.
As for `COc1cc(/C=C2/SC(N)=NC2=O)ccc1OCc1ccccc1[N+](=O)[O-]`, the figure is 3.9%; as for `CN1CCN(Cc2c(O)ccc3c4c(c(=O)oc23)CCC4)CC1`, -0.5%; as for `O=[N+]([O-])c1ccccc1CSc1nnnn1-c1ccccc1`, 9.6%.
For `O=C1C(Nc2cccc(C(F)(F)F)c2)=C(N2CCCCC2)C(=O)c2ccccc21`, the displacement was 11.8%.
Under `Cc1cccc(C)c1OCC(=O)Nc1ccc([N+](=O)[O-])cc1` stands 14%; under `COc1ccc(C(O)c2cnc(C(C)C)n2C)cc1OC` (stereo not given), -8.4%.
Consider `C=CCc1cccc(/C=N\N2CCN(c3ccccc3)CC2)c1O`, for which the displacement turned out to be 7.6%.
As for `O=C(Nc1ccccc1)Nc1nnc(COc2ccc(F)cc2)s1`, the displacement is 14.6%.
